{"source": "patent US6660767B2", "about": "“Coumarin compounds as microtubule stabilizing agents and therapeutic uses thereof” (The Regents of the University of California, priority 2001, dated 2003)", "key": {"HeLa cells": {"test_system": "HeLa cells", "experiment": "HeLa cell assay of mitotic spindle and chromosome organization (immunofluorescence)"}, "microtubule plus ends": {"test_system": "microtubule plus ends", "experiment": "Steady-state dynamic instability of individual microtubules by DIC video microscopy", "assay_type": "biochemical, bovine", "settings": "for Mean Duration Growing / Mean Length Growing / Mean Length Shortening: plus ends at steady state", "experimental": "Analysis of dynamic instability behavior of individual microtubules at steady state was conducted with real-time DIC video microscopy as described by Walker et al. (1988) J. Cell Biol. 107:1437-1448 and Panda et al. (1995) Biochem 34:9921-9929, both of which are herein incorporated by reference. A Hamamatsu C2400 Newvicon video camera was used to capture the images of microtubules which were enhanced with a Hamamatsu DVS3000 digital image processor. Analysis of length changes was performed using a video analysis software program designed by N. Gliksman at the University of North Carolina.\nMicrotubules were grown at the ends of sea urchin flagellar axonemal fragments (seeds) to distinguish the plus and minus ends. The microtubules were allowed to achieve polymer-mass steady state which took less than about 30 minutes, and analysis of the steady-state dynamics was carried out for about 30 minutes to about 45 minutes without deterioration of the microtubules or any detectable changes in dynamics. The individual dynamic instability parameters were analyzed quantitatively. These included the rates of growing and shortening, the lengths of time microtubules grow and shorten, the mean lengths of each growing or shortening event, the transition frequencies from the growing or attenuated state to shortening or from shortening to the growing or attenuated or paused state, the percentage of total time the microtubules spend growing, shortening, or in the attenuated state, and the overall dynamicity, the combined total observable growing and shortening per unit time. See Kowalski, R. J. et al. (1993) 26(4):282-290, which is herein incorporated by reference.\nTubulin pellets were thawed and centrifuged at 4° C. to remove any aggregated or denatured tubulin. The purified tubulin was mixed with axoneme seeds and polymerized in PMME buffer (87 mM PIPES, 36 mM MES, 1.4 mM MgCl2, 1 mM EGTA, pH 6.8) comprising 1 mM GTP in the presence or absence of coumarin compounds. […].\nAfter 35 minutes of incubation, samples of microtubule suspensions (2.5 μl and 2.0 μl) were prepared for video microscopy, and the dynamics of individual microtubules were recorded at 37° C. as described previously (Panda et al. (1995) Biochem. 34:9921-9929, which is herein incorporated by reference).\nThe microtubule was determined to be in a growing phase if the microtubule increased in length by >0.2 μM at a rate >0.15 μm/min and in a shortening phase if the microtubule shortened in length by >0.2 μM at a rate >0.3 μm/min. Length changes equal to or less than 0.2 μm over the duration of six data points were considered as attenuation phases. The same tubulin preparation for all experiments was used and for preliminary experiments, an average of about 10 to about 15 microtubules was measured for each experimental condition, and for the results provided in Table 1, about 20 to about 30 microtubules were analyzed for each experimental condition.\nThe catastrophe frequency (transition from the growing or attenuated state to shortening) was calculated by dividing the number of catastrophes by the sum of the total time spent in the growing plus attenuated states for all microtubules for a particular condition. The rescue frequency (transition from shortening to growing or attenuation, excluding new growth from a seed) was calculated by dividing the total number of rescue events by the total time spent shortening for all microtubules for a particular condition. Control microtubules alternated between phases of growing and shortening, but also spent a small percentage of time in an attenuated state."}, "[1]": {"settings": "1 μM dicoumarol, versus control"}, "[2]": {"settings": "previous experiments (second set), concentration not given"}, "[3]": {"settings": "previous experiments, 0.1 μM dicoumarol"}}, "data": [{"smiles": "O=c1oc2ccccc2c(O)c1Cc1c(O)c2ccccc2oc1=O", "note": "[dicoumarol]", "values": [{"measurement": "organization of mitotic spindle microtubules", "setting": "HeLa cells; about 10 μM dicoumarol, about 20 hours", "value": "abnormal organization of mitotic spindle microtubules"}, {"measurement": "effect on mitosis", "setting": "HeLa cells; about 20 hours, range of dicoumarol concentrations", "value": "blocked mitosis at the transition form metaphase to anaphase"}, {"measurement": "microtubule bundling or tubulin paracrystal formation", "setting": "HeLa cells; high concentrations of dicoumarol", "value": "does not induce microtubule bundling or tubulin paracrystal formation"}, {"measurement": "organization of interphase cytoplasmic microtubules", "setting": "HeLa cells; low concentrations of dicoumarol", "value": "did not produce discernible changes"}, {"measurement": "decrease of frequency of catastrophe", "setting": "microtubule plus ends; 0.1 μM dicoumarol", "value": "about 65%"}, {"measurement": "increase of overall percentage of time in the paused (attenuated) state", "setting": "microtubule plus ends; 0.1 μM dicoumarol", "value": "about 64%"}, {"measurement": "reduction of dynamicity", "setting": "microtubule plus ends; 0.1 μM dicoumarol", "value": "about 57%"}, {"measurement": "frequency of catastrophe", "setting": "microtubule plus ends; 0.1 μM dicoumarol (text), listed as Dicoumarol", "value": 0.22, "unit": "events/min"}, {"measurement": "lengths of a shortening excursion", "setting": "microtubule plus ends; 1 μM dicoumarol", "value": "about 1.4 μm"}, {"measurement": "mean shortening rate", "setting": "microtubule plus ends; 1 μM dicoumarol", "value": "about 7.8 μm per minute"}, {"measurement": "reduction of lengths of a shortening excursion", "setting": "microtubule plus ends; [1]", "value": "about 40%"}, {"measurement": "reduction of mean shortening rate", "setting": "microtubule plus ends; [1]", "value": "about 58%"}, {"measurement": "rescue frequency", "setting": "microtubule plus ends; dicoumarol", "value": "did not significantly alter"}, {"measurement": "total time spent growing", "setting": "microtubule plus ends; dicoumarol", "value": "no significant effect"}, {"measurement": "Mean Duration Growing", "setting": "microtubule plus ends; dicoumarol 0.04 μM", "value": "1.30 ± 0.18", "unit": "min"}, {"measurement": "Mean Length Growing", "setting": "microtubule plus ends; dicoumarol 0.04 μM", "value": "0.70 ± 0.09", "unit": "μm/event"}, {"measurement": "Mean Length Shortening", "setting": "microtubule plus ends; dicoumarol 0.04 μM", "value": "2.00 ± 0.53", "unit": "μm/event"}, {"measurement": "Mean Duration Growing", "setting": "microtubule plus ends; dicoumarol 0.1 μM", "value": "1.50 ± 0.29", "unit": "min"}, {"measurement": "Mean Length Growing", "setting": "microtubule plus ends; dicoumarol 0.1 μM", "value": "0.61 ± 0.10", "unit": "μm/event"}, {"measurement": "Mean Length Shortening", "setting": "microtubule plus ends; dicoumarol 0.1 μM", "value": "1.90 ± 0.43", "unit": "μm/event"}, {"measurement": "Mean Duration Growing", "setting": "microtubule plus ends; dicoumarol 1.0 μM", "value": "1.70 ± 0.30", "unit": "min"}, {"measurement": "Mean Length Growing", "setting": "microtubule plus ends; dicoumarol 1.0 μM", "value": "0.95 ± 0.22", "unit": "μm/event"}, {"measurement": "Mean Length Shortening", "setting": "microtubule plus ends; dicoumarol 1.0 μM", "value": "1.40 ± 0.44", "unit": "μm/event"}, {"measurement": "Mean Duration Growing", "setting": "microtubule plus ends; dicoumarol 10.0 μM", "value": "1.70 ± 0.38", "unit": "min"}, {"measurement": "Mean Length Growing", "setting": "microtubule plus ends; dicoumarol 10.0 μM", "value": "0.58 ± 0.09", "unit": "μm/event"}, {"measurement": "Mean Length Shortening", "setting": "microtubule plus ends; dicoumarol 10.0 μM", "value": "1.60 ± 0.37", "unit": "μm/event"}, {"measurement": "Mean Duration Growing", "setting": "microtubule plus ends; dicoumarol 50.0 μM", "value": "2.36 ± 0.34", "unit": "min"}, {"measurement": "Mean Length Growing", "setting": "microtubule plus ends; dicoumarol 50.0 μM", "value": "1.00 ± 0.17", "unit": "μm/event"}, {"measurement": "Mean Length Shortening", "setting": "microtubule plus ends; dicoumarol 50.0 μM", "value": "1.40 ± 0.21", "unit": "μm/event"}, {"measurement": "decrease of frequency of catastrophe", "setting": "microtubule plus ends; [2]", "value": "about 72%"}, {"measurement": "decrease of rescue frequency", "setting": "microtubule plus ends; [2]", "value": "about 27%"}, {"measurement": "overall percentage of time in the paused (attenuated) state", "setting": "microtubule plus ends; previous experiments (second set), concentration not given, control about 33.8%", "value": "about 47.24%"}, {"measurement": "decrease of frequency of catastrophe", "setting": "microtubule plus ends; [3]", "value": "about 50%"}, {"measurement": "increase of overall percentage of time in the attenuated state", "setting": "microtubule plus ends; [3]", "value": "about 64%"}, {"measurement": "lengths of a shortening excursion", "setting": "microtubule plus ends; previous results", "value": "about 1.6 μM"}, {"measurement": "mean shortening rate", "setting": "microtubule plus ends; previous results", "value": "about 5.2 μm per minute"}, {"measurement": "reduction of lengths of a shortening excursion", "setting": "microtubule plus ends; previous results", "value": "about 30%"}, {"measurement": "reduction of mean shortening rate", "setting": "microtubule plus ends; previous results", "value": "about 72%"}, {"measurement": "reduction of dynamicity", "setting": "microtubule plus ends; previous results, 0.1 μM dicoumarol", "value": "about 64%"}, {"measurement": "average rate or lengths of growth", "setting": "microtubule plus ends; various dicoumarol concentrations", "value": "no significant change"}]}]}
